Reference: a collection of fitness landscapes (doi:10.1126/science.1257360)
The other results are listed elsewhere or left out.

B1: PhoQ; a variant is named by its letters at X, in order, P23837 (parent)
chain: MKKLLRLFFPLSLRVRFLLATAAVVLVLSLAYGMVALIGYSVSFDKTTFRLLRGESNLFYTLAKWENNKLHVELPENIDKQSPTMTLIYDENGQLLWAQRDVPWLMKMIQPDWLKSNGFHEIEADVNDTSLLLSGDHSIQQQLQEVREDDDDAEMTHSVAVNVYPATSRMPKLTIVVVDTIPVELKSSYMVWSWFIYVLSANLLLVIPLLWVAAWWSLRPIEALAKEVRELEEHNRELLNPATTRELTSLVRNLNRLLKSERERYDKYRTTLTDLTHSLKTPLXXLQXXLRSLRSEKMSVSDAEPVMLEQISRISQQIGYYLHRASMRGGTLLSRELHPVAPLLDNLTSALNKVYQRKGVNISLDISPEISFVGEQNDFVEVMGNVLDNACKYCLEFVEISARQTDEHLYIVVEDDGPGIPLSKREVIFDRGQRVDTLRPGQGVGLAVAREITEQYEGKIVAGESMLGGARMEVIFGRQHSAPKDE

Variants of: B1
Experiment: enrichment ratio after two sorts for PhoP signalling (ratio (wild type AVST 3.29)); higher = more functional
Conditions: with PhoP (E. coli)

Variant | enrichment ratio
QWHR | ≤ 0.25
VHKT | ≤ 0.25
VNCK | ≤ 0.25
SQTS | 11.8
KVFY | ≤ 0.25
PPRQ | ≤ 0.25
FSMW | ≤ 0.25
PMNI | ≤ 0.25
SWHD | ≤ 0.25
NGVM | ≤ 0.25
EFCG | ≤ 0.25
TKKW | ≤ 0.25
EDRQ | ≤ 0.25
WHAL | ≤ 0.25
TQIW | ≤ 0.25
MSKT | ≤ 0.25
YVYW | ≤ 0.25
LKVT | ≤ 0.25
DSEY | ≤ 0.25
PSRG | ≤ 0.25
CLAC | ≤ 0.25
EISV | ≤ 0.25
WFYE | ≤ 0.25
ATAK | 4.57
FDRC | ≤ 0.25
KNWL | ≤ 0.25

Variant | enrichment ratio
YLFV | ≤ 0.25
VRAE | ≤ 0.25
VLLQ | ≤ 0.25
GWDA | ≤ 0.25
FIPE | ≤ 0.25
MWTL | ≤ 0.25
RSEP | ≤ 0.25
VHYP | ≤ 0.25
NTHW | ≤ 0.25
CQLH | 27.9
MYNP | 0.52
DTKT | ≤ 0.25
CHVH | ≤ 0.25
IRNG | ≤ 0.25
PFSY | ≤ 0.25
QVQH | ≤ 0.25
KLWC | ≤ 0.25
DFCR | ≤ 0.25
FGQQ | ≤ 0.25
QHNG | 6.46
LGHW | ≤ 0.25
HCPD | ≤ 0.25
PCAK | ≤ 0.25
PYNI | ≤ 0.25
VLCF | ≤ 0.25
VQYM | ≤ 0.25

Variant | enrichment ratio
ASNG | ≤ 0.25
GHIK | ≤ 0.25
MDFY | ≤ 0.25
SNPL | ≤ 0.25
NIGH | ≤ 0.25
PANF | ≤ 0.25
IISV | ≤ 0.25
YENF | ≤ 0.25
NYMF | ≤ 0.25
RWYP | ≤ 0.25
WVFY | ≤ 0.25
SKRI | ≤ 0.25
PDSQ | ≤ 0.25
MAPN | ≤ 0.25
RLKP | ≤ 0.25
VCDL | ≤ 0.25
RTTF | ≤ 0.25
VQWW | ≤ 0.25
FDKL | ≤ 0.25
FNHR | ≤ 0.25
PMKY | ≤ 0.25
IFIQ | ≤ 0.25
QQSL | 4.22
FWWD | ≤ 0.25
NIPS | ≤ 0.25
TSMT | 11

Variant | enrichment ratio
VEGN | ≤ 0.25
NYAT | ≤ 0.25
NRCR | ≤ 0.25
EENM | ≤ 0.25
DKKK | ≤ 0.25
MGDL | ≤ 0.25
TFNV | ≤ 0.25
DMVW | ≤ 0.25
MQAR | ≤ 0.25
HLFW | ≤ 0.25
VDRD | ≤ 0.25
HLFE | ≤ 0.25
MEQV | ≤ 0.25
VTHG | ≤ 0.25
PMCL | ≤ 0.25
YQGN | ≤ 0.25
RVVC | ≤ 0.25
IHEK | ≤ 0.25
KYVR | ≤ 0.25
YDVP | ≤ 0.25
SAGG | 6.77
DYTT | ≤ 0.25
ETFR | ≤ 0.25
NFCM | ≤ 0.25
IPAN | ≤ 0.25
YSWV | ≤ 0.25

Variant | enrichment ratio
TILD | ≤ 0.25
HFDW | ≤ 0.25
FGHT | ≤ 0.25
NTHY | ≤ 0.25
QGDK | ≤ 0.25
RYKE | ≤ 0.25
PIAA | ≤ 0.25
SPRD | ≤ 0.25
WTHA | ≤ 0.25
ANFK | ≤ 0.25
RVWQ | ≤ 0.25
ISYY | ≤ 0.25
RMQR | ≤ 0.25
FDVR | 0.644
FQSN | ≤ 0.25
ACSA | 11
FQNC | ≤ 0.25
HCRP | ≤ 0.25
RLML | ≤ 0.25
FTDQ | ≤ 0.25
WPLE | ≤ 0.25
MPMD | ≤ 0.25
YIAY | ≤ 0.25
WSHA | ≤ 0.25
HLPN | ≤ 0.25
GHAH | ≤ 0.25

Variant | enrichment ratio
PPFT | ≤ 0.25
ARVK | ≤ 0.25
HITW | ≤ 0.25
YPCE | ≤ 0.25
RNEA | ≤ 0.25
AALA | 7.36
QGGP | ≤ 0.25
YKTG | ≤ 0.25
SAIQ | 0.849
AILY | 1.94
KDAI | ≤ 0.25
LTWR | ≤ 0.25
PDMR | ≤ 0.25
FVIG | ≤ 0.25
IVDW | ≤ 0.25
VMCG | ≤ 0.25
ITVN | ≤ 0.25
GKAH | ≤ 0.25
ATCR | 6.44
KCRM | ≤ 0.25
QKYC | ≤ 0.25
HENG | ≤ 0.25
GELN | 7.62
